Measured values as given in PubChem BioAssay AID485294 (National Center for Advancing Translational Sciences (NCATS), 2010).
About 150 (0.041%) of roughly 370,000 compounds were called active. Inconclusive means that the source gave no clear call. Such entries were picked first, then a sample of the others. Calls follow the shape of the dose curve; as a rule, active = well fitted inhibition curve with a large enough effect; inconclusive = small, poorly fitted or top-dose-only effect; inactive = flat fitted curve, though single readings scatter. Potencies of inconclusive entries are left out as doubtful fits.
Also: nearly all actives have a fitted effect of over 25% in size.
Potency is read from the fitted curve at half-maximal effect; tags tell the direction and shape of the fitted curve.

The compounds below were run against Beta-lactamase (Escherichia coli (strain K12)) (UniProt P00811) (assay: qHTS Inhibitors of AmpC Beta-Lactamase (assay with detergent)). Details: AmpC hydrolysis of nitrocefin, absorbance 480 nm, 0.01% Triton; series mostly up to 114 µM.
UniProt P00811, sequence (P00811 whole entry, looked up): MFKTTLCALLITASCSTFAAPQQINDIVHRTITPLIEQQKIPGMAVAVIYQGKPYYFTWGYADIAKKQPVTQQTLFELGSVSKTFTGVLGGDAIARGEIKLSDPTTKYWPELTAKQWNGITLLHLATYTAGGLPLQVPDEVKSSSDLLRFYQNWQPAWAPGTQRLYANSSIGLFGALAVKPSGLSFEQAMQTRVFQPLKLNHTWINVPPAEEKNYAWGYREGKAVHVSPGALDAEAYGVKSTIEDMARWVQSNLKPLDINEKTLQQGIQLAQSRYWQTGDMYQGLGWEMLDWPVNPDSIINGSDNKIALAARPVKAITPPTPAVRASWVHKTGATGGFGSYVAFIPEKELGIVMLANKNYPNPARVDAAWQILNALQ
Procedure, shortened: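 20 mM phosphate pH 7.0 + 0.01% (detergent screen) or 0.0001% Triton X-100; 5.3 nM AmpC reagent; cpd preinc 15 min RT; nitrocefin (800 uM stock) to start; A480 q20 s × 4 min; Activity was normalised to no-enzyme and no-compound control wells.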
For `CC(=O)C1=C(C)NC(SCC(=O)Nc2nccs2)=C(C#N)C1c1ccccc1Cl` (stereo not given), the Potency was inconclusive [inhibitor, full curve].
For `CN(CCOc1ccccc1)CC(=O)Nc1ccc(S(=O)(=O)N2CCCC2)cc1`, the Potency was “inactive”.
In the case of `Cc1ccccc1C(=O)N1CCC(C(=O)Nc2ccc(S(=O)(=O)N3CCCC3)cc2)CC1`, the Potency is reported as inconclusive [inhibitor, partial curve, poor fit].
In the case of `O=C1OC(Cc2ccncc2)C(O)=C1C1=NCCCN1` (stereo not given), the Potency is reported as inconclusive [inhibitor, full curve].
With `CCOC(=O)C1=C(O)/C(=C/c2ccccn2)SC1=Nc1ccc(Cl)cc1` the Potency was inconclusive [inhibitor, partial curve, poor fit].
In the case of `CCCCn1c(=O)[nH]c2ccccc21`, the Potency is reported as inconclusive [inhibitor, partial curve, poor fit].
In the case of `O=C(CSc1oc(-c2cccs2)nc1S(=O)(=O)c1ccccc1)NC1CCCCC1`, the Potency is reported as inconclusive [inhibitor, single point].
`CCCNS(=O)(=O)c1cccc2cccnc12` was tested, and the Potency was inconclusive [inhibitor, full curve, poor fit].
In the case of `O=c1c2ccccc2nnn1CCN1CCOCC1`, the Potency is reported as “inactive”.
For `CCOc1ccc(C(=O)Nc2cccc(-c3nc4cc(Cl)cc(Cl)c4o3)c2)cc1`, the Potency was “inactive”.
In the case of `COc1ccc(Cn2c(=O)c3oc4ccccc4c3n(Cc3cccc(C(F)(F)F)c3)c2=O)cc1`, the Potency is reported as “inactive”.
In the case of `Cc1nn(-c2ccccc2)c2c1N(CC(=O)N1CCN(c3cccc(Cl)c3)CC1)C(=O)CS2`, the Potency is reported as “inactive”.
For `O=C(NCC(=O)N1CCCC1)c1ccc(Cl)cc1`, the Potency was “inactive”.
In the case of `C/C(=N\NC(=O)c1nnn(-c2nonc2N)c1-c1cccs1)c1ccc(C)cc1`, the Potency is reported as “inactive”.
For `COc1ccccc1N1CCN(C(=O)Cn2cnc3onc(-c4ccc(F)cc4)c3c2=O)CC1`, the Potency was “inactive”.
In the case of `COc1ccc(OC)c(C(=O)COC(=O)c2cccnc2Cl)c1`, the Potency is reported as inconclusive [inhibitor, partial curve].
For `O=C(NC1CCS(=O)(=O)C1)OC1CCCCC1` (stereo not given), the Potency was inconclusive [inhibitor, full curve, poor fit].
For `CCCCN(C)C(=O)C1CCCN(c2ncnc3onc(C)c23)C1` (stereo not given), the Potency was “inactive”.
`O=C(O)c1ccc(S(=O)(=O)N(Cc2ccc(F)cc2)C2CCCCC2)cc1` was tested, and the Potency was “inactive”.
`Cc1cccc(N2CCN(c3nc4ccc(Cl)cc4n4cnnc34)CC2)c1C` was tested, and the Potency was “inactive”.
`Cn1nnc(NC(=O)C(c2ccccc2)c2ccccc2)n1` was tested, and the Potency was inconclusive [inhibitor, partial curve, poor fit].
In the case of `CCN(CC)C(=O)C1CCCN(Cc2ccccc2F)C1` (stereo not given), the Potency is reported as inconclusive [inhibitor, partial curve, poor fit].
`O=C(O)CC1S/C(=N/N=C/C=C/c2ccccc2)NC1=O` (stereo not given) was tested, and the Potency was inconclusive [inhibitor, partial curve, poor fit].
With `CN(C)CCCN(C(=O)c1cc(-c2cccs2)nc2ccccc12)c1nc2c(F)cccc2s1` the Potency was “inactive”.
`O=C(Nc1nc2ccccc2n1CCN1CCOCC1)c1cn(-c2ccccc2)nc1-c1ccccc1` was tested, and the Potency was inconclusive [inhibitor, single point].
For `C=CCn1sc(=N)c(C#N)c1N`, the Potency was inconclusive [inhibitor, partial curve, poor fit].
With `Nc1c(-c2ccc(Cl)cc2)cnn1-c1cccc([N+](=O)[O-])c1` the Potency was “inactive”.
With `COC(=O)c1sccc1NC(=O)c1cc2c(s1)CCCC2` the Potency was “inactive”.
In the case of `COc1ccccc1-c1coc2c(CN3CCN(C)CC3)c(O)ccc2c1=O`, the Potency is reported as inconclusive [inhibitor, single point].
In the case of `CC(Sc1nnc(-c2ccco2)n1C)C(=O)NC1CCCC1` (stereo not given), the Potency is reported as “inactive”.
`Fc1ccc(Nc2nc(NCc3ccco3)c3ccccc3n2)cc1` was tested, and the Potency was “inactive”.
With `CCOC(=O)Nc1ccc(S(=O)(=O)NC2CCCCC2)cc1` the Potency was “inactive”.
`CCOC(=O)C1(Cc2ccccc2C)CCCN(C(=O)COC)C1` (stereo not given) was tested, and the Potency was inconclusive [inhibitor, full curve, poor fit].
With `Cc1ccc(C)c(OCC(=O)N2CCN(c3ncccn3)CC2)c1` the Potency was inconclusive [inhibitor, full curve, poor fit].
For `O=C(Nc1nnc(-c2ccncc2)s1)Nc1ccccc1F`, the Potency was inconclusive [inhibitor, partial curve].
With `O=C(Nc1ccc(N2CCOCC2)cc1)c1cc2c(s1)CCCCC2` the Potency was “inactive”.
For `COc1ccc(C(=O)CN2C(=O)C(C)(C)Oc3ccc(C(=O)N4CCCCCC4)cc32)cc1`, the Potency was inconclusive [inhibitor, partial curve].
For `COc1cc(CNCc2cc(OC)c(OC)c(OC)c2)cc(OC)c1`, the Potency was inconclusive [inhibitor, partial curve, poor fit].
`O=C(O)C(=O)Cc1c[nH]c2ccccc12` was tested, and the Potency was inconclusive [inhibitor, full curve, poor fit].
In the case of `CC(C)c1cc(CNC(=O)c2cc(COc3cncc(Cl)c3)on2)on1`, the Potency is reported as inconclusive [inhibitor, partial curve, poor fit].
For `CCn1c(=O)[nH]c2cc(Cl)c(Cl)cc21`, the Potency was inconclusive [inhibitor, full curve, poor fit].
`N=C1/C(=C\c2coc3ccccc3c2=O)C(=O)N=C2SC(c3ccncc3)=NN12` was tested, and the Potency was “inactive”.
For `CC(C)=CCC/C(C)=C/C=N/NC(=O)c1ccc([N+](=O)[O-])cc1`, the Potency was inconclusive [inhibitor, partial curve, poor fit].
`Cn1c(O)c(C(c2ccccn2)c2c(O)n(C)c(=S)[nH]c2=O)c(=O)[nH]c1=S` was tested, and the Potency was “inactive”.
With `Cc1ccc(-c2noc(CNC(=O)c3ccc(Br)o3)n2)cc1` the Potency was “inactive”.
In the case of `Cc1ccc(C(=O)Oc2cccnc2)cc1[N+](=O)[O-]`, the Potency is reported as inconclusive [inhibitor, full curve].
`O=C(Cc1ccccc1)Nn1c(O)c(/C=C2\C=Nc3ccccc32)sc1=S` was tested, and the Potency was inconclusive [inhibitor, partial curve].
In the case of `CCCCN1CC2([N+](=O)[O-])C=CC(=O)C([N+](=O)[O-])(C1)C2CC(=O)c1ccccc1` (stereo not given), the Potency is reported as inconclusive [inhibitor, full curve, poor fit].
With `COc1ccc(OC)c(/C=N/NC(=O)c2[nH]nc3c2CCc2ccccc2-3)c1` the Potency was inconclusive [inhibitor, partial curve, poor fit].
In the case of `NNC(=O)CCc1nc2ccccc2[nH]1`, the Potency is reported as inconclusive [inhibitor, single point].
`C[C@@H](NC(=O)[C@@H]1Cc2ccccc2CN1)C(=O)Nc1ccc2c(c1)OCCO2` was tested, and the Potency was inconclusive [inhibitor, full curve].
`Cc1cccc(N2CCN(C(=O)c3cn(CC(C)C)c(=O)c4c3c3ccccc3n4C)CC2)c1C` was tested, and the Potency was “inactive”.
`COC(=O)C1=C(c2ccc(Cl)c(C(F)(F)F)c2)C[C@@H]2CC[C@H]1N2C(=O)NCc1ccc2c(c1)OCO2` was tested, and the Potency was “inactive”.
For `CCCOC(=O)c1ccc(OCC(O)CN2CCN(C(=O)c3ccccc3)CC2)cc1` (stereo not given), the Potency was inconclusive [inhibitor, partial curve, poor fit].
`CCOc1ccc(CN2CCNC(=O)C2CC(=O)NCCCOc2cccnc2)cc1` (stereo not given) was tested, and the Potency was inconclusive [inhibitor, full curve, poor fit].
For `Cc1cccc(N2CCN(C(=O)c3cccc(S(=O)(=O)N4CCc5ccccc5C4)c3)CC2C)c1` (stereo not given), the Potency was inconclusive [inhibitor, full curve, poor fit].
In the case of `CCN(CCCNC(=O)CN1N=C(c2ccc(OC)cc2)CCC1=O)c1cccc(C)c1`, the Potency is reported as “inactive”.
In the case of `O=C(Nc1ncn[nH]1)c1ccc(Cl)c(S(=O)(=O)N2CCCCCC2)c1`, the Potency is reported as inconclusive [inhibitor, single point].
In the case of `O=C(NCC1CCCCC1)C1CCCN(C(=O)NC2CCCCC2)C1` (stereo not given), the Potency is reported as inconclusive [inhibitor, partial curve, poor fit].
With `CN(Cc1ccccc1)S(=O)(=O)c1cc(Br)cc2c1N(C(=O)C1CC1)CC2` the Potency was “inactive”.
In the case of `Cc1cccc2nc(CSc3ccc(Cl)cc3)cn12`, the Potency is reported as “inactive”.
For `Cc1cccc(N2CSC3=C(C#N)C(c4ccc(C)o4)CC(=O)N3C2)c1` (stereo not given), the Potency was inconclusive [inhibitor, full curve, poor fit].
With `Cc1nn(Cc2ccccc2)c(Cl)c1C(=O)NC(C)(C)C` the Potency was inconclusive [inhibitor, full curve, poor fit].
In the case of `C=CCNC(=O)/C(=C\c1ccco1)NC(=O)c1ccco1`, the Potency is reported as inconclusive [inhibitor, full curve].
With `COc1ccccc1C(=O)Nc1nnc(-c2ccc(F)cc2)o1` the Potency was inconclusive [inhibitor, full curve, poor fit].
For `CC(C)N(C(=O)CSc1nnc(-c2cc3ccccc3cc2O)n1Cc1ccco1)C(C)C`, the Potency was “inactive”.
With `COc1ccc(Cc2nnc(SCC(=O)c3ccc4c(c3)NC(=O)CO4)o2)cc1` the Potency was inconclusive [inhibitor, full curve, poor fit].
`CN1CCN(C(=O)c2ccc(COc3ccc(C(C)(C)C)cc3)o2)CC1` was tested, and the Potency was inconclusive [inhibitor, partial curve].
For `CC1Cc2ccccc2N1C(=O)CSc1nnnn1C1CCCC1` (stereo not given), the Potency was “inactive”.
In the case of `CC(C)(C)c1oc(C(=O)O)cc1CN1CCOCC1`, the Potency is reported as inconclusive [inhibitor, single point].
